# From the supplement of paper PMC3334620
# In all, about 33,000 sequences were measured (“E-score (-0.5 to 0.5)”: median about -0.011, highest 2% from about 0.28 on). Some of the results follow.
# Target: T1, Gcr1 (UniProt P07261)
# T1 sequence: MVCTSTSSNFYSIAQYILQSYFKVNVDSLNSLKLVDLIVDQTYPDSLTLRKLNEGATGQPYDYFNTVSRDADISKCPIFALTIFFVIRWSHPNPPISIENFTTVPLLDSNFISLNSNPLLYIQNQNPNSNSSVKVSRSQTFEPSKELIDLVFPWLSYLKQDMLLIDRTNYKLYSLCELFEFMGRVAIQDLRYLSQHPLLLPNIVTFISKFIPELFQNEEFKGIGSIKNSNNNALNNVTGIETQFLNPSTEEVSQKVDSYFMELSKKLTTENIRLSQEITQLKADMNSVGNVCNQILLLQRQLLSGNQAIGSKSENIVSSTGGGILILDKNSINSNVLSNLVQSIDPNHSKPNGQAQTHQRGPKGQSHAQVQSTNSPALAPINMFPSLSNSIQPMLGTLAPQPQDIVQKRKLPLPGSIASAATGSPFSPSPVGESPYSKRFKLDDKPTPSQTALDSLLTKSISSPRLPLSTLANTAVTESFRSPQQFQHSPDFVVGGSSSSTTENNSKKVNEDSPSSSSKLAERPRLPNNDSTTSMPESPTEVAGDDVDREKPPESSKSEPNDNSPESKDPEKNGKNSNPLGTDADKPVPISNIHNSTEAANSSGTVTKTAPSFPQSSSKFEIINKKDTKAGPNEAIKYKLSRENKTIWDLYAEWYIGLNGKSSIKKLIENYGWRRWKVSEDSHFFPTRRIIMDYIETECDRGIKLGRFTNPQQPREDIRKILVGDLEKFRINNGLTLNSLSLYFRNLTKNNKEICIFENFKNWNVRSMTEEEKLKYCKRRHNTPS
# Test: PBM E-score (8-mer binding enrichment) (E-score (-0.5 to 0.5)); higher = stronger / more preferred TF binding; most listed sequences are background and not binding sites
# Details: protein concentration: 100 nM; construct: GST-full length
# Procedure, shortened: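 Masliner-normalised scans of fluorescent anti-GST signal were the basis for scoring. That signal came from GST-tagged yeast transcription factors applied at about 100-200 nM to double-stranded universal all-10-mer Agilent arrays on fresh or once-stripped slides. Each ungapped eight-base word, pooled with its reverse complement, received an E-score from the Universal PBM Analysis Suite.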
row,Sequence,PBM E-score
1,GCCCGCCC,0.0747
2,GTGAACTA,0.0565
3,CTCTCGAA,-0.125
4,ACCTACGG,-0.27
5,AAAAATAC,0.0293
6,ACAAACTC,0.0236
7,GGATATGA,0.0405
8,CGGAAGAG,-0.141
9,GAGCGCAC,-0.133
10,GTCATATA,-0.00182
11,ATCAGGCC,-0.0847
12,GAATTTCC,0.082
13,AACTAGAC,0.0109
14,CGTATACG,0.229
15,AGCTCGAG,0.188
16,TGCCGCCA,-0.0269
17,GAAGGAAC,-0.0139
18,AATCAGAT,-0.0345
19,AAGTCGGA,0.0426
20,AGAATGAC,-0.184
21,ACCTCAGG,0.0232
22,GTTCCAAC,0.0801
23,ACTCGCTG,-0.027
24,ACCAATCG,-0.057
25,GTCCGGAC,-0.24

row,Sequence,PBM E-score
1,CACCCGGC,-0.0953
2,CTCGCCAG,-0.0824
3,TAGTTACA,0.108
4,AAGTGAAT,-0.00472
5,CAGTCTTC,-0.0594
6,CAGAGGCG,-0.024
7,AGTATGCA,0.0208
8,AAGAGTTG,-0.0408
9,GCGGACAA,-0.155
10,AGGGAGGG,0.0631
11,GGCTATCA,-0.108
12,AGTAGTGA,-0.155
13,AGAGGGAT,-0.141
14,CTCTACCA,-0.215
15,CACTCGAA,-0.00234
16,CACTATCG,0.0304
17,TGATGGCA,-0.0703
18,ATGATTGC,-0.192
19,AGCTTCGG,0.17
20,CGATACTA,0.0787
21,CTTCCGGC,0.111
22,CCTCGAGG,0.031
23,CACTGGCC,-0.235
24,CTCCGCAA,0.0291
25,CCATTAAA,0.139

row,Sequence,PBM E-score
1,AGAAGATA,0.141
2,CGTTTATA,0.18
3,AGGCACAC,-0.148
4,GATAAGCA,0.057
5,ACGCAGCA,-0.0163
6,AGGGGTGC,0.0379
7,CATCTGAG,0.187
8,GTGAGAGA,-0.215
9,ACGTGACC,-0.103
10,TCCGAAAA,0.222
11,ACTCTCGG,-0.101
12,ACACCTCA,0.0722
13,ACCGGCTC,-0.0398
14,ATAACTAG,0.12
15,GACGCACA,-0.0013
16,ACCCTGAG,0.0519
17,CTATGATC,-0.128
18,GTTCAAAA,0.0537
19,CCAGGTTA,0.056
20,CAAAGACC,0.00996
21,GATGGACA,-0.0299
22,CACCCATA,0.0425
23,GAATCGGC,0.11
24,ACACGATC,0.0856
25,CATCCGCC,-0.0197

row,Sequence,PBM E-score
1,AGGCTGGA,-0.133
2,ACTAATCT,0.111
3,CGCGCCCC,0.243
4,ATGACCTA,-0.226
5,AGATTAGA,-0.0228
6,AAGTTCGT,0.0698
7,GAGCTGCA,-0.0802
8,CCGTCATC,-0.159
9,ATGATTCA,-0.105
10,GAATACCC,0.0233
11,CAGACTCC,0.172
12,CGCCAGAC,0.043
13,ACAAGTAA,0.0253
14,CTTTATAC,0.063
15,AGACGAGC,-0.0948
16,GCCTCCAA,0.0769
17,CCATGACG,-0.036
18,CTGCGCTA,-0.00164
19,GCCGGAGA,-0.0663
20,AGTAGAAT,-0.00816
21,CTGGTCTA,-0.243
22,GCCGACTA,0.00147
23,CGACATCC,0.166
24,AGATTTCC,-0.0328
25,ACGTTCTA,-0.013

row,Sequence,PBM E-score
1,AAGGCAAA,-0.168
2,CAACGGGA,0.0126
3,ACCGCTTG,-0.0218
4,GTGGTACA,-0.105
5,CGCGTGAC,0.135
6,AACAGGAG,-0.0445
7,CTAAAATC,0.111
8,TGAAATAA,0.0918
9,GCTTTTAA,0.0873
10,TCGCGAAA,0.0716
11,TACGAGAA,0.119
12,CCGCATCG,-0.0819
13,TACTACTA,0.147
14,CCACTGAG,0.182
15,GATCCAAA,0.0721
16,AGCACTGG,-0.0389
17,AGTCCGAG,-0.0645
18,ACAACCAT,0.00146
19,AGCTCACC,0.00067
20,CGAATCAG,-0.0648
21,AGTACAGA,0.155
22,TACCGGGA,0.18
23,AACATTAA,0.0199
24,ACACTCGT,-0.152
25,CTCATCTA,-0.077

row,Sequence,PBM E-score
1,CGCGATTC,0.0683
2,AGATCACC,-0.0945
3,ACCGCATC,-0.017
4,ACGCCCCG,-0.054
5,CCTGACAC,0.151
6,CGGCGCCA,0.308
7,CAGAGCCG,0.115
8,GATAGTGC,-0.0925
9,ACTAATGG,0.122
10,CATCCCAC,0.0413
11,GATTCAAA,0.0575
12,GAGTTATC,-0.154
13,CACCTTTA,0.0192
14,AGTGTGTA,0.0322
15,AAGAGGAG,-0.0404
16,ATACCTAG,-0.0202
17,GACCGGGA,0.0433
18,CTAGCTAC,0.0361
19,ATGGCAAT,-0.0868
20,GATTTACC,0.155
21,GTAATTGA,0.177
22,ACACCACT,0.26
23,CCACCCGC,0.00328
24,AACAAGCT,-0.239
25,GTTTGGGA,-0.0986

row,Sequence,PBM E-score
1,AATGTCCA,0.0143
2,CAAATTCA,-0.0459
3,CGTTTGAG,-0.183
4,CCACACGA,0.0146
5,TAAGCTCA,-0.0536
6,AAGCTCAG,0.0786
7,AAACGAAA,-0.0157
8,CATAGCGC,0.125
9,CATAACGC,-0.0716
10,AGATATCA,-0.0158
11,TGGTATAA,0.182
12,GAACTTCC,0.248
13,AAACTTCC,0.0871
14,GATATACC,-0.0609
15,GATGTGAA,-0.0483
16,TAGGAACA,0.0697
17,GTTCCCCA,0.0853
18,AACGCGTT,-0.149
19,GCGAAATA,-0.112
20,AAAACATC,0.102
21,CAACAGAG,0.0878
22,AACGCGTC,-0.138
